Data from PubChem BioAssay AID624417 (National Center for Advancing Translational Sciences (NCATS), 2012).
The whole screen tested about 410,000 compounds, of which about 6,400 (1.6%) were called active. The inconclusive results got no clear call from the source; some entries with a clear call stand among them for comparison. The call rests on the fitted dose curve; in most records, active means well fitted inhibition curve with a large enough effect; inconclusive means small, poorly fitted or top-dose-only effect; inactive means no such curve, though single readings can be large or run the other way. A potency beside an inconclusive call is a rough fit, not a confirmed value.

molecular target: Glucagon-like peptide 1 receptor (Homo sapiens) (UniProt P43220); assay: qHTS of GLP-1 Receptor Inverse Agonists (Inhibition Mode); conditions: HEK293 GLP-1R CRE-luciferase, luminescence, 24 h, GLP-1R form is constitutively active; activity change, negative = inhibition: at 38.3 µM (top of the series) unless noted; further: nearly all actives have a fitted effect of over 55% in size
Sequence of UniProt P43220 (P43220 whole entry, looked up): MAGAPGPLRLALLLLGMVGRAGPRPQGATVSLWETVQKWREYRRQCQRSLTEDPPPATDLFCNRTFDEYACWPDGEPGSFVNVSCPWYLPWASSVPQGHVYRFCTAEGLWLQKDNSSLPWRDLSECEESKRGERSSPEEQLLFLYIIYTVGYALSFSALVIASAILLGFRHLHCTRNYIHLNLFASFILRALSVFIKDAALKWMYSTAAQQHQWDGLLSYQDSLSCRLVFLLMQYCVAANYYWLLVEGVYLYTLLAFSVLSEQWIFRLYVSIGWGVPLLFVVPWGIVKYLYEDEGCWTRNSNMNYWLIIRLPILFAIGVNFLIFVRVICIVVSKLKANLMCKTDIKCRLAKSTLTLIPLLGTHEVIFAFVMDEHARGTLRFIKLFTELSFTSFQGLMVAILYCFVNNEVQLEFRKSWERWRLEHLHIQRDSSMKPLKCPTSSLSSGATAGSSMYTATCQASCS
How it was run: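 Constitutively active GLP-1R drives a cAMP-responsive luciferase in stably transfected HEK293 cells; test compounds are added after overnight (12 h) attachment and left 24 hr, and signal loss in luminescence marks inhibition.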
On the % scale 0 is the no-effect control and ±100 the full control effect; potency means the concentration at half of the fitted maximal effect; tags describe the fitted curve by direction and shape.

Potency, active:
CCc1ccc2c(CN3CCN(Cc4ccccc4)CC3)cc(=O)oc2c1 8.91 µM, CCOC(=O)c1c(C)n(-c2ccc(OC)cc2)c2ccc(O)c(CN(C)C)c12 5.62 µM, CCN1CCN(S(=O)(=O)c2ccc(Cl)c(C(=O)Nc3ccccc3N3CCCCC3)c2)CC1 10 µM

Potency, inconclusive:
CCOC(=O)C1=C(CSCc2ccccc2)NC(=O)NC1c1cc(C)ccc1C (stereo not drawn) 22.4 µM [inhibitor, single point], Cc1cc(OC(C)C(=O)Nc2ccc(S(=O)(=O)Nc3onc(C)c3C)cc2)cc(C)c1Cl (stereo not drawn) 20 µM [inhibitor, single point], Cc1ccc(C)c(N2CCN(CCCNC(=O)CCn3c(=O)c4cccn4c4cccnc43)CC2)c1 11.2 µM [inhibitor, partial curve, poor fit], Cc1ccc(C(=O)CCC2CCCCC2=O)cc1 (stereo not drawn) 10 µM [inhibitor, single point], OC(COC(c1ccc(F)cc1)c1ccc(F)cc1)CN1CCCC1 (stereo not drawn) 28.2 µM [inhibitor, single point], O=C(Nc1cccc(OC(F)(F)F)c1)C1Cc2c(-c3ccc4c(c3)OCO4)ccnc2O1 (stereo not drawn) 15.8 µM [inhibitor, single point], CCc1cc2cc(C)ccc2nc1SCC(=O)NC1CCCC1 8.91 µM [inhibitor, partial curve, poor fit], COc1ccc(COCC(O)CN(Cc2ccco2)Cc2ccccc2O)cc1 (stereo not drawn) 10 µM [inhibitor, partial curve, poor fit], CC(=O)NCCn1c(SCc2ccc(C)cc2)nc2ccccc2c1=O 28.2 µM [inhibitor, single point], CCN(CC)CCCN(C(=O)c1ccccc1C)c1nc(-c2ccc(OC)cc2)cs1 14.1 µM [inhibitor, single point], COc1ccccc1NS(=O)(=O)c1ccc(C(=O)N2CCN(c3ccccc3)CC2)cc1 22.4 µM [inhibitor, single point], N/C(=N\OC(=O)Cc1ccccc1[N+](=O)[O-])c1ccc(Br)cc1 28.2 µM [inhibitor, single point], Nc1nc(Nc2ccccc2)nc(NC2CCCCC2)c1[N+](=O)[O-] 20 µM [inhibitor, single point], CCC1CN(C(=O)N2CCC(C(=O)NCc3ccccc3C)CC2)c2ccccc2O1 (stereo not drawn) 28.2 µM [inhibitor, single point], COc1cccc(NC(=O)NCC2CCN(Cc3ccc(F)cc3)CC2)c1 12.6 µM [inhibitor, partial curve, poor fit], Cc1ccc(C2=NN(CC(=O)NCCN(CC(C)C)CC(C)C)C(=O)CC2)cc1 10 µM [inhibitor, partial curve, poor fit], COc1ccccc1/C=N\Nc1cc(C)nc(-n2nc(C)cc2C)n1 1.26 µM [inhibitor, full curve, poor fit], CCc1ccc(NC(=O)CCCN2C(=S)NC(C)(C)CC2C)cc1 (stereo not drawn) 8.91 µM [inhibitor, partial curve, poor fit], COc1ccc(OC)c(-n2nnnc2SCC(=O)Nc2cc(C)ccc2OC)c1 7.94 µM [inhibitor, partial curve, poor fit], CCCCCCc1ccc(N2C[C@H](C)[C@@H](CC(=O)NCc3ccccc3)C2=O)cc1 12.6 µM [inhibitor, single point], CCc1nc2ccc(C(=O)Nc3cccc(NS(C)(=O)=O)c3)cn2c1N(CC)Cc1cccc(Br)c1 28.2 µM [inhibitor, single point], O=S(=O)(Nc1ccccc1N1CCOCC1)c1ccc(F)c(Cl)c1 28.2 µM [inhibitor, single point], O=C(N/N=C/c1ccc(O)cc1O)c1ccc(NC(=O)C2CCCCC2)cc1 6.31 µM [inhibitor, partial curve, poor fit], CC(N)c1csc(Nc2cc(Oc3ccccc3)ncn2)n1 (stereo not drawn) 6.31 µM [inhibitor, partial curve, poor fit], CCOC(=O)CSc1nc(C)c2cc(C)c(C)cc2n1 3.16 µM [inhibitor, partial curve, poor fit], Cc1c(CCOC(=O)C23CC4(C)CC(C)(CC(C)(C4)C2)C3)sc[n+]1CC(=O)c1ccccc1 20 µM [inhibitor, single point], CCC1(C)Cc2c(sc3nc(SCC(=O)c4ccccc4)[nH]c(=O)c23)CO1 (stereo not drawn) 3.16 µM [inhibitor, partial curve, poor fit], Cc1ccc(S(=O)(=O)Nc2cc(Cl)c(O)c3ncccc23)cc1 22.4 µM [inhibitor, single point], CC(C)N(Cc1ccccc1)C(=O)C1CCN(c2ncnc3c2nc2n3CCCCC2)CC1 15.8 µM [inhibitor, partial curve, poor fit], COc1ccc(OC)c(C(=O)/C=C/c2ccccc2C(F)(F)F)c1 11.2 µM [inhibitor, single point], O=C(NNc1ccccc1)C(=O)NNS(=O)(=O)c1ccc(CCCl)cc1 2.24 µM [inhibitor, full curve, poor fit], COc1ccc(OC(F)(F)F)cc1CC1(C)C(=O)Nc2cccc(Cl)c21 (stereo not drawn) 28.2 µM [inhibitor, single point], COc1ccc(-c2csc3ncnc(N4CCN(c5cccc(Cl)c5)CC4)c23)cc1 5.62 µM [inhibitor, partial curve], Cc1ccc(NC(=O)CN2CCSc3ccc(S(=O)(=O)N4CCCC4)cc32)cc1C 31.6 µM [inhibitor, single point], O=C(COc1ccccc1-c1ccccc1)N/N=C/c1ccccn1 10 µM [inhibitor, partial curve, poor fit], COc1cccc(C(=O)N/N=C/c2ccc(Oc3ccc([N+](=O)[O-])cn3)c(OC)c2)c1 8.91 µM [inhibitor, partial curve, poor fit], CCCc1ccc(-c2cc(NC(=O)CSc3nnc(N)s3)n(-c3ccccc3)n2)cc1 7.94 µM [inhibitor, partial curve, poor fit], O=C(NCC(O)c1ccccc1)c1ccc(Cl)c(S(=O)(=O)N2CCCCC2)c1 (stereo not drawn) 7.08 µM [inhibitor, partial curve, poor fit], Cc1ccc2[nH]c(C)c(/C=N/Nc3nc4ccccc4s3)c2c1 28.2 µM [inhibitor, single point], COC(=O)[C@@H]1C(c2ccccc2)(c2ccccc2)[C@@]1(C)C(=O)OC 0.447 µM [inhibitor, full curve, poor fit], CC(C)(C)c1ccc(/C=C/C(=O)Nc2cccnc2)cc1 28.2 µM [inhibitor, single point], COc1cc(OC)cc(C(=O)N[C@H](C(=O)OCC(=O)Nc2ccc(C)cc2C)C(C)C)c1 3.16 µM [inhibitor, single point], O=C(c1ccc(Cl)cc1)N1CCOc2ccccc21 11.2 µM [inhibitor, single point], Cc1cc(OCC(=O)C(C)(C)C)c2c(-c3ccccc3)cc(=O)oc2c1 11.2 µM [inhibitor, single point], COC(=O)c1c(NC(=O)C2CCCCC2)sc2c1CC(C)(C)NC2(C)C 10 µM [inhibitor, partial curve, poor fit], CCOC(=O)c1ccc(NC(=O)c2ccc(=O)n(Cc3cccc(C)c3)c2)cc1 12.6 µM [inhibitor, partial curve, poor fit], O=C(NCCCN1CCOCC1)c1cn(-c2ccccc2)nc1-c1ccc(F)cc1 10 µM [inhibitor, partial curve], Cc1cc(Cl)ccc1OCC(=O)N(Cc1ccco1)Cc1ccco1 15.8 µM [inhibitor, single point]

Potency, inactive:
CC(O)CNc1nc2c(c(=O)n(Cc3ccc(Cl)cc3)c(=O)n2C)n1C (stereo not drawn)

Activity change, negative = inhibition, inactive:
O=C1N/C(=N\S(=O)(=O)Cc2ccccc2)S/C1=C/c1cc([N+](=O)[O-])ccc1O -3.98%, COc1ccc(C(=O)COC(=O)Cn2c(C)csc2=O)c(OC)c1 27.9%, CC(C)NC(=O)C1CCN(c2nc3ccccc3nc2C(F)(F)F)CC1 2.26%, Cc1ccc(C2=NN(CCC(=O)NCc3ccc4c(c3)OCO4)C(=O)CC2)cc1 2.27%, CCOP(=O)(c1ccc(N(C)C)cc1)C(O)c1ccc(C)cc1 (stereo not drawn) -5.48%, CCOc1ccc(-c2nnc(SCC(=O)NCc3ccccc3)o2)cc1 3.2%, OCC1OC(Oc2cccc3ccccc23)C(O)C(O)C1O (stereo not drawn) 6.79%, COc1ccccc1CNS(=O)(=O)c1cc(CN2C(=O)c3cccnc3C2=O)ccc1OC 11.9%, CC(/C=N/NC(=O)Cc1cccs1)=C\c1ccccc1 -0.765%, COc1ccc(CCNC(=O)CCc2c(C)c3cc4c(C)coc4c(C)c3oc2=O)cc1OC -8.51%, COc1ccc(-c2cn3cccnc3n2)cc1NC(=O)c1cc(C)cc(C)c1 14%
